Screen size: about 52,000 compounds; about 4,300 (8.3%) were called active. Rule as the data show it: active = survival mostly below about 52% (no sharp cut-off); inactive = mostly above about 56%. The list shows a part of the results.
The molecules below were run on DeltatarO mutant (assay: growth inhibition of S. aureus wild type versus tarO mutant, primary screen, teichoic acid synthesis inhibitors, RN4220, OD600 (AID 463173)). Details: OD600, 18 h, active compounds read low, screened at 18.75 µg/mL (by protocol).
In the case of `CCCN1C2CCCC1CC(NC(=O)c1ccc(F)cc1)C2` (stereo not drawn), the survival is reported as inactive: 98%.
In the case of `CCc1cccc(NC(=O)C(Cc2ccccc2)NS(=O)(=O)c2ccc3c(c2)oc(=O)n3C)c1` (stereo not drawn), the survival is reported as inactive: 101%.
For `CCOC(=O)c1c(NC(=O)c2cc3nc(-c4ccc(OC)cc4)cc(C(F)(F)F)n3n2)sc2c1CCC(C)C2` (stereo not drawn), the survival was inactive: 95%.
With `COC(=O)/C=C1/N/C(=N/c2nc3ccccc3s2)NC1=O` the survival was inactive: 90%.
For `Cc1cccc(Cn2c(=O)n(CC3CCC(C(=O)N4CCOCC4)CC3)c(=O)c3sccc32)c1` (stereo not drawn), the survival was inactive: 69%.
For `Cc1c(Cl)cccc1NC1=NCC(=O)N1C1CCCC1`, the survival was inactive: 100%.
With `Cc1cc2oc(C(=O)N(Cc3ccccc3F)C3CCS(=O)(=O)C3)c(C)c2cc1Cl` (stereo not drawn) the survival was inactive: 55%.
With `Cc1ccc(C)c(N2CCN(C(=O)Cn3ncc4ccsc4c3=O)CC2)c1` the survival was inactive: 73%.
`CCOC(=O)c1ccc(NC(=O)c2c(N3CCCC3=O)c3cc(OC)ccc3n2C)cc1` was tested, and the survival was inactive: 74%.
For `OCC1=CC[N+]2(Cc3ccccc3)CCC(O)C12` (stereo not drawn), the survival was inactive: 84%.
`Cc1ccc(C2CC(=O)Nc3cc4c(cc32)OCCO4)cc1` (stereo not drawn) was tested, and the survival was inactive: 120%.
In the case of `CC1=C(C(=O)OCC2CCCCC2)C(c2cccc(Cl)c2Cl)CC(=O)N1` (stereo not drawn), the survival is reported as inactive: 86%.
For `CCc1ccc(Cn2c(CNS(=O)(=O)c3ccc(F)c(Cl)c3)nc3cccnc32)cc1`, the survival was active: 20%.
`CC(=O)N1CCCC1c1nc2ccccc2n1Cc1ccccc1` (stereo not drawn) was tested, and the survival was inactive: 68%.
With `CCOc1ccc(CCNC(=O)c2ccc(Nc3nc4ccccc4n4nnnc34)cc2)cc1OCC` the survival was inactive: 113%.
With `Cc1ccc(N2C(=O)N(CC(=O)C(C)(C)C)c3ccccc3S2(=O)=O)cc1C` the survival was inactive: 91%.
With `CCc1cccc(NC(=O)c2cc3c(=O)n(Cc4ccc(OC)cc4)ccc3nc2C)c1` the survival was inactive: 102%.
With `CCCSc1nnc2c(n1)OC(c1sccc1C)Nc1ccccc1-2` (stereo not drawn) the survival was inactive: 79%.
With `CCOc1ccc(-c2cc(C(=O)N3CCN(S(=O)(=O)c4cc(Cl)ccc4OC)CC3)[nH]n2)cc1` the survival was inactive: 73%.
In the case of `CCN1/C(=C2\C(=O)N(c3ccc(Cl)cc3)N=C2C)C=Cc2ccccc21`, the survival is reported as inactive: 68%.
For `CS(=O)(=O)n1c(=O)sc2ccccc21`, the survival was inactive: 99%.
In the case of `COc1ccc(S(=O)(=O)c2c(C)c(NS(=O)(=O)c3ccccc3)cc(C)c2O)cc1`, the survival is reported as inactive: 67%.
`O=C(CSc1nc2c(c(=O)[nH]1)CCC2)Nc1ccccc1C(F)(F)F` was tested, and the survival was inactive: 72%.
In the case of `Cc1ccccc1Nc1c(-c2ccc(Cl)s2)nc2cccc(C)n12`, the survival is reported as inactive: 99%.
In the case of `O=C(c1ccc2c(c1)CCCC2)N1CCN(c2nc3c(F)cccc3s2)CC1`, the survival is reported as inactive: 81%.
With `COc1cc(C(c2c(C)[nH][nH]c2=O)c2c(C)[nH][nH]c2=O)ccc1OC(=O)c1cccc(C)c1` the survival was inactive: 75%.
`CCOC(=O)C1CCCCN1S(=O)(=O)c1csc(C(N)=O)c1` (stereo not drawn) was tested, and the survival was inactive: 121%.
`CCCC(CCC)C(=O)Nc1cc(-c2cn3cccnc3n2)ccc1OC` was tested, and the survival was inactive: 71%.
In the case of `O=c1c(-c2ccc(Cl)cc2)c(C(F)(F)F)oc2c(CN3CCCCC3)c(O)ccc12`, the survival is reported as inactive: 134%.
In the case of `O=C(O)CN1C(=O)CC(Cc2ccccc2)C1=O` (stereo not drawn), the survival is reported as inactive: 100%.
In the case of `CCc1ccc(N2C(=O)CSC23C(=O)N(Cc2ccc(C)cc2)c2ccccc23)cc1` (stereo not drawn), the survival is reported as inactive: 69%.
With `CCc1cccc(NC(=O)C2CCCN(S(=O)(=O)c3cccs3)C2)c1` (stereo not drawn) the survival was inactive: 80%.
In the case of `CC(C)(C)c1ccc(OCCn2cc(C(=O)c3ccco3)c3ccccc32)cc1`, the survival is reported as active: 35%.
For `COc1ccccc1N1CCN(C(CNC(=O)C(=O)NCc2ccc(C)cc2)c2cccnc2)CC1` (stereo not drawn), the survival was inactive: 65%.
`Cc1ccc(C2=CC(c3ccccc3F)n3c(nc4ccccc43)N2)cc1C` (stereo not drawn) was tested, and the survival was inactive: 70%.
`CN(C)c1ccc(-n2c(CCC(=O)O)ccc2-c2ccccc2)cc1` was tested, and the survival was inactive: 60%.
For `CCC1CN(Cc2ccccc2)CCC1=O` (stereo not drawn), the survival was inactive: 84%.
`CCOC(=O)C1CCN(C(c2cccnc2)c2nnnn2Cc2ccccc2)CC1` (stereo not drawn) was tested, and the survival was inactive: 96%.
With `CCOC(=O)CN1N=NC2C(=O)N(c3ccccc3)C(=O)C21` (stereo not drawn) the survival was inactive: 92%.
In the case of `COc1ccc(C2=NC(c3ccncc3)=Nc3ccc(Br)cc3N2)cc1`, the survival is reported as inactive: 82%.
With `COc1ccc(-n2c(=O)c3c4c(sc3n(Cc3ccccc3Cl)c2=O)CCC4)c(OC)c1` the survival was inactive: 52%.
`COCc1[nH]nc2c1C(c1ccc(F)c(F)c1)C(C#N)=C(N)O2` (stereo not drawn) was tested, and the survival was inactive: 74%.
With `OCCNc1nc2nonc2nc1NCCO` the survival was inactive: 82%.
With `Cc1cccc(OCC(=O)Nc2ccccc2OCc2cc(=O)n3ccccc3n2)c1` the survival was inactive: 85%.
`Cc1cccc(-c2nc3c(c(SCc4ccccc4Cl)n2)Cc2c(CO)cnc(C)c2O3)c1` was tested, and the survival was inactive: 68%.
In the case of `CCOc1ccccc1NC(=O)c1c(NC(=O)C(C)Oc2ccc(Cl)cc2)sc2c1CCCCC2` (stereo not drawn), the survival is reported as inactive: 83%.
`Cc1ccc(NS(=O)(=O)c2ccc3c(c2)CC(C)N3C(=O)C2CCC2)cc1Cl` (stereo not drawn) was tested, and the survival was inactive: 77%.
`CNC(=O)CN1C(=O)c2cccnc2Sc2ccccc21` was tested, and the survival was inactive: 109%.
In the case of `CC(C)CC1N=C2c3ccccc3N=C(SCC(=O)NCCc3ccc(Cl)cc3)N2C1=O` (stereo not drawn), the survival is reported as inactive: 95%.
`CCNC(=O)c1cnc2c(-c3ccccc3)c(C)nn2c1C` was tested, and the survival was active: 8%.
In the case of `CC(C)CCn1c(=O)c2sccc2n2c(CCCC(=O)NC(C)C)nnc12`, the survival is reported as inactive: 96%.
`COc1ccc(-c2nc3cc(C)ccn3c2NC(=O)c2ccc(C)c(C)c2)cc1` was tested, and the survival was inactive: 68%.
With `Cc1ccc2c(c1)-c1nc(-c3ccc4c(c3)NC(=O)CO4)cc(-c3ccc(F)cc3)c1CO2` the survival was inactive: 100%.
In the case of `COc1ccccc1C(=O)Nc1c(C(=O)N(C)Cc2ccccc2)sc2nc(C)c(Cl)c(C)c12`, the survival is reported as inactive: 71%.
`Cc1nc2c(C(=O)NCCc3ccc(Cl)cc3)c[nH]n2c(=O)c1Cc1ccc(Cl)cc1` was tested, and the survival was active: -14%.
With `CCOc1ccccc1CNC(=O)C1CCCN(c2ncnc3onc(-c4ccc(F)cc4)c23)C1` (stereo not drawn) the survival was inactive: 78%.
In the case of `COc1cccc(-c2cc(C(F)(F)F)nc(NCCc3ccccc3)n2)c1`, the survival is reported as active: -8%.
`Cc1ccc(CN2CCc3nc(N4CCN(c5ccccc5F)CC4)ncc3C2)cc1C` was tested, and the survival was inactive: 77%.

Reference: PubChem BioAssay AID463173 (ICCB-Longwood Screening Facility, Harvard Medical School, 2010)
